Data on seven molecules can be found in paper PMC6533336.

Chains of the proteins cited; added tags and fusions are not shown.
UniProt Q61656: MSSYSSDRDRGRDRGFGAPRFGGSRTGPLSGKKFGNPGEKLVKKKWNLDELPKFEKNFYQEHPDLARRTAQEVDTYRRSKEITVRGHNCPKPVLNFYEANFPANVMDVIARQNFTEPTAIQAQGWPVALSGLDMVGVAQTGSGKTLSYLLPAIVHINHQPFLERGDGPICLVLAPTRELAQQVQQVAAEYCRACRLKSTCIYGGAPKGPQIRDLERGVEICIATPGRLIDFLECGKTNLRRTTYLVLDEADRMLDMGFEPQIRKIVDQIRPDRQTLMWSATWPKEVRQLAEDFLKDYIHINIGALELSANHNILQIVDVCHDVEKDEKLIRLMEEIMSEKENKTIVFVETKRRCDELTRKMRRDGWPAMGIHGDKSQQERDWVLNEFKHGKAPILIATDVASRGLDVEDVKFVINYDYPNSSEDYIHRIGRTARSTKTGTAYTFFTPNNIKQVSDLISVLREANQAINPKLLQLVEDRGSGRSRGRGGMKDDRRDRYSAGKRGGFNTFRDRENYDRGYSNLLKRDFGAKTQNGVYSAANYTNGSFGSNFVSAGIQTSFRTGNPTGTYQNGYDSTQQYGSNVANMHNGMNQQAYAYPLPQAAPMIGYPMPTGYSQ
UniProt Q9CXY6: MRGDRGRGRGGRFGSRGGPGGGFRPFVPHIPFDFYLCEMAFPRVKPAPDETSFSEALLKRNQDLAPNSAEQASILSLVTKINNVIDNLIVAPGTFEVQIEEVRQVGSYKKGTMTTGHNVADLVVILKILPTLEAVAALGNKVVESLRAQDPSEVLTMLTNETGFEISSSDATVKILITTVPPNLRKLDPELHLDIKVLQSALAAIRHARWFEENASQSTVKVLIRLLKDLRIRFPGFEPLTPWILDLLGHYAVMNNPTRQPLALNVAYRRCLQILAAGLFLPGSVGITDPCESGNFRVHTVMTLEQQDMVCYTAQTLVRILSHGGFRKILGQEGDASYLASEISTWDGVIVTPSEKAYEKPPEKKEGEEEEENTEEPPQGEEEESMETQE
UniProt Q9R210: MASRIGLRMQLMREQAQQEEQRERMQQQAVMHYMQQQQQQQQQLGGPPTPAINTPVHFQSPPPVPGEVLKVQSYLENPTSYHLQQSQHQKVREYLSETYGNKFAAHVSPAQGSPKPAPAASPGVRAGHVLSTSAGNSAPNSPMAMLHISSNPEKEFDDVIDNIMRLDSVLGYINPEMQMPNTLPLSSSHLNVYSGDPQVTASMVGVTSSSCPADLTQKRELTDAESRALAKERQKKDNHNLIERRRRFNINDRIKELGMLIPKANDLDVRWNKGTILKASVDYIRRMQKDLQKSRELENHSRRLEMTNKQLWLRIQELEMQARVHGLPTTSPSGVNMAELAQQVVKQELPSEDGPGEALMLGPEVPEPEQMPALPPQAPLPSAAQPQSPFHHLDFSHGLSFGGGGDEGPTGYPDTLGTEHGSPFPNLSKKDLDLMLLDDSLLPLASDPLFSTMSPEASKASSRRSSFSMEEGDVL
UniProt Q9CPN8: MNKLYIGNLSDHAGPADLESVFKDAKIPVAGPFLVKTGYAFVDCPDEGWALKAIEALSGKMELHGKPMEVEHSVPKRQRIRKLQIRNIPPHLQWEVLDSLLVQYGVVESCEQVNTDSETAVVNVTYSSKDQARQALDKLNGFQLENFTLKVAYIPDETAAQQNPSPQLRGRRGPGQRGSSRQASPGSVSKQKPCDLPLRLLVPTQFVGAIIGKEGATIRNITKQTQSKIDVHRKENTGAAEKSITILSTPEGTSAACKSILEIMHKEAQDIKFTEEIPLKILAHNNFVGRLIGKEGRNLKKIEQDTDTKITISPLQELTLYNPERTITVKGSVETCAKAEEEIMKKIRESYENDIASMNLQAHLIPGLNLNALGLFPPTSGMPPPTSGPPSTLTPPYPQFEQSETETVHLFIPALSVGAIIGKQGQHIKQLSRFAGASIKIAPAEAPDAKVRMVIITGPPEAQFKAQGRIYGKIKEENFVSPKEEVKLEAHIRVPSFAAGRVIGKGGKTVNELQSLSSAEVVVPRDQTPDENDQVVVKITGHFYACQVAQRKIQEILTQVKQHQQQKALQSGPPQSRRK
UniProt P70372: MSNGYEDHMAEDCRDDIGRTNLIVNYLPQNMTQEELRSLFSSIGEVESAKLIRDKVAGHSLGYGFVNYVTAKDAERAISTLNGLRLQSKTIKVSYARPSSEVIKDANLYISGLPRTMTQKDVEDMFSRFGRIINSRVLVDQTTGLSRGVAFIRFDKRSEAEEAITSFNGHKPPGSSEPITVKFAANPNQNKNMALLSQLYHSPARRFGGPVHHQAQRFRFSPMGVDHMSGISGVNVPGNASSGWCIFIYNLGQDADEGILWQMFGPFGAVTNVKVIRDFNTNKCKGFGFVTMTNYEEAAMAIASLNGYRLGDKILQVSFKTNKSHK
UniProt P29341: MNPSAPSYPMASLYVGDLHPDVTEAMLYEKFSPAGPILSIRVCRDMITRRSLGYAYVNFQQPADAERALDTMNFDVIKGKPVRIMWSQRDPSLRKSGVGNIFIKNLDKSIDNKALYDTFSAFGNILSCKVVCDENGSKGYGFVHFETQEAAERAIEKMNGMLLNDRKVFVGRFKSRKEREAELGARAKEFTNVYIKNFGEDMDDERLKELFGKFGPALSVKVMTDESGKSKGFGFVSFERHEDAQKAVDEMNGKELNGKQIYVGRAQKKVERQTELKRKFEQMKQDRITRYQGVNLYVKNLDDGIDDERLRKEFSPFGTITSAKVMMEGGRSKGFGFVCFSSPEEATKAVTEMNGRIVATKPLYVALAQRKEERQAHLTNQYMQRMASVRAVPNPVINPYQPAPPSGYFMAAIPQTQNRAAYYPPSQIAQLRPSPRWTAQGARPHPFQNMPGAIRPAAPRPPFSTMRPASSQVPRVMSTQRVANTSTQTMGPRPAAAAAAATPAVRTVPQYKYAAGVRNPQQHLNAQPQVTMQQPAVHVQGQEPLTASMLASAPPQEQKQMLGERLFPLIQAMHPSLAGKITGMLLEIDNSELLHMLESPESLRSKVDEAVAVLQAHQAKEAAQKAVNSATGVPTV

Like-named read-outs stand apart in the source and are kept apart here. These are yes or no findings as the source states them, for the method shown. In cells and extracts the contact can be indirect. Some results given as binding are weak or reduced against the parent protein; the word gives no strength.

Experiment [1] has as its target DEAD box helicase 5 (DDX5) (mouse (endogenous in cultured murine undifferentiated spermatogonia)) (UniProt Q61656). Briefly: co-IP; IP with Armenian hamster anti-PLZF (clone 13G10) or goat anti-DDX5 (Abcam ab10261), 10 ug antibody, protein G sepharose beads, western blot, IgG control; cultured wildtype murine undifferentiated spermatogonia.
For experiment [2] the target is unchanged. The experiment is described as above. This is another data set of the same source.

Consider ILF2 (from UniProt Q9CXY6 1-390), for which the binding entry in experiment [1] is on record as “binds”. Turning to TFEB (from UniProt Q9R210 1-475), in experiment [1], the binding result was “no binding”. Same read-out and setting: to IGF2BP3 (from UniProt Q9CPN8 1-579) belongs “binds”. For the molecule ELAVL1 (from UniProt P70372 1-326), the binding entry in experiment [1] is on record as “binds”. Still for that read-out and setting: to PABP1 (from UniProt P29341 1-636) belongs “binds”.

B1: ILF3 (interleukin enhancer binding factor 3) (protein, UniProt Q9Z1X4 1-898)
chain: MRPMRIFVNDDRHVMAKHSSVYPTQEELEAVQNMVSHTERALKAVSDWIDEQEKGNSELSEAENMDTPPDDESKEGAGEQKAEHMTRTLRGVMRVGLVAKGLLLKGDLDLELVLLCKEKPTTALLDKVADNLAIQLTTVTEDKYEILQSVDDAAIVIKNTKEPPLSLTIHLTSPVVREEMEKVLAGETLSVNDPPDVLDRQKCLAALASLRHAKWFQARANGLKSCVIVIRVLRDLCTRVPTWGPLRGWPLELLCEKSIGTANRPMGAGEALRRVLECLASGIVMPDGSGIYDPCEKEATDAIGHLDRQQREDITQSAQHALRLAAFGQLHKVLGMDPLPSKMPKKPKNENPVDYTVQIPPSTTYAITPMKRPMEEDGEEKSPSKKKKKIQKKEEKADPPQAMNALMRLNQLKPGLQYKLISQTGPVHAPIFTMSVEVDGSNFEASGPSKKTAKLHVAVKVLQDMGLPTGAEGRDSSKGEDSAEESDGKPAIVAPPPVVEAVSNPSSVFPSDATTEQGPILTKHGKNPVMELNEKRRGLKYELISETGGSHDKRFVMEVEVDGQKFQGAGSNKKVAKAYAALAALEKLFPDTPLALEANKKKRTPVPVRGGPKFAAKPHNPGFGMGGPMHNEVPPPPNIRGRGRGGNIRGRGRGRGFGGANHGGGYMNAGAGYGSYGYSSNSATAGYSQFYSNGGHSGNAGGGGSGGGGGSSSYSSYYQGDSYNSPVPPKHAGKKPLHGGQQKASYSSGYQSHQGQQQPYNQSQYSSYGTPQGKQKGYGHGQGSYSSYSNSYNSPGGGGGSDYSYDSKFNYSGSGGRSGGNSYGSSGSSSYNTGSHGGYGTGSGGSSSYQGKQGGYSSQSNYSSPGSSQSYSGPASSYQSSQGGYSRNTEHSMNYQYR
For B1, the binding result in experiment [2] was “binds”.

B2: SRSF3 (protein, UniProt P84104 1-164)
chain: MHRDSCPLDCKVYVGNLGNNGNKTELERAFGYYGPLRSVWVARNPPGFAFVEFEDPRDAADAVRELDGRTLCGCRVRVELSNGEKRSRNRGPPPSWGRRPRDDYRRRSPPPRRRSPRRRSFSRSRSRSLSRDRRRERSLSRERNHKPSRSFSRSRSRSRSNERK
B2: the binding result in experiment [2] is given as “binds”.
